Experiment in all cases: Primary Screen for Target Class Profiling of Small Molecule Inhibitors of Methyltransferases
The target of assay [1] is Glycine N-methyltransferase (Homo sapiens) (UniProt Q14749). As to conditions: purified enzyme, MTase-Glo SAH luminescence; measured here: GNMT inhibition; at 40 µM; stronger effect = lower value. The method, boiled down: (§1)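 Each enzyme was reacted with SAM and its substrate, with compounds tested once at 40 uM; SAH formed was read by MTase-Glo luminescence.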
Assay [2] deals with Guanidinoacetate N-methyltransferase (Homo sapiens) (UniProt Q14353). The conditions noted are these: purified enzyme, MTase-Glo SAH luminescence; measured here: GAMT inhibition; at 40 µM; stronger effect = lower value. The essentials: as §1
Assay [3] has as its target Histamine N-methyltransferase (Homo sapiens) (UniProt P50135). As to conditions: purified enzyme, MTase-Glo SAH luminescence; measured here: HNMT inhibition; at 40 µM; stronger effect = lower value. The essentials: as §1
Assay [4] deals with Nicotinamide N-methyltransferase (Homo sapiens) (UniProt P40261). The conditions noted are these: purified enzyme, MTase-Glo SAH luminescence; measured here: NNMT inhibition; at 40 µM; stronger effect = lower value. The method, boiled down: as §1
Assay [5] has as its target Phenylethanolamine N-methyltransferase (Homo sapiens) (UniProt P11086). The conditions noted are these: purified enzyme, MTase-Glo SAH luminescence; measured here: PNMT inhibition; at 40 µM; stronger effect = lower value. The method, boiled down: as §1

The list shows a part of the results. The main result of the screen is listed elsewhere. These columns were measured beside it and carry no call.
% is scaled to controls: 0 for no effect and ±100 for the full control effect.

On to `COCCN1CCCC1c1nc(C2CN(C(=O)c3ccccc3OC)C2)no1` (stereo not given), for which the activity change, negative = inhibition is -2.69% in assay [1]; -2.49% in assay [2]; -6.29% in assay [3]; -3.41% in assay [4]; -6.93% in assay [5].
In the same order, the values of `Cc1cc(CN2C[C@@H](COCC3CC3)[C@H](c3ccccn3)C2)n(C)n1` are -3.54%, -1.52%, 0.925%, -3.48% and 1.62%.
Take `CSc1ccc(CCN2C(=O)c3ccc(-c4ccco4)n3CC2(C)C(=O)NC2CCCCC2)cc1` (stereo not given): the activity change, negative = inhibition in assay [1] is -27.4%; in assay [2], -0.296%; in assay [3], 1.67%; in assay [4] it was -7.22%; in assay [5], -2.01%.
`CCC(C)NC(=O)c1ccc2c(=O)n(C)c3nnc(SCC(=O)Nc4ccc(OC)cc4)n3c2c1` (stereo not given): the activity change, negative = inhibition in assay [1] is 5.23%; in assay [2], 0%; in assay [3] it was 5.11%; in assay [4], 5.76%; in assay [5], 7.4%.
Consider `COc1ccc2nc3ccc(OC)cc3c(SCCCN)c2c1`, for which the activity change, negative = inhibition is -1.62% in assay [2], -17.3% in assay [4] and -4.52% in assay [5].
Regarding `CN1CCN(C(=O)[C@@H]2C[C@H](C(=O)O)CN(Cc3cccc(F)c3)C2)CC1`, the activity change, negative = inhibition in assay [1] is -5.01%; in assay [2], -8.09%; in assay [3], -5.14%; in assay [4], -9.08%; in assay [5] it was -9.92%.
Turning to `CC(C)n1c(=O)c2ccc(C(=O)NC3CCCCC3)cc2n2c(=O)n(Cc3cccc(F)c3)nc12`, the activity change, negative = inhibition in assay [1] is 2.06%; in assay [2], 1.8%; in assay [3], 6.28%; in assay [4] it was 1.22%; in assay [5] it was -1.28%.
As for `CC(NCc1ccc(OCc2cccc(F)c2)cc1)C(N)=O` (stereo not given), the activity change, negative = inhibition was -1.13% in assay [1] and 8.42% in assay [3].
Regarding `C=C1CC[C@H]2C(=C)CC[C@H]3C(=C)C(=O)O[C@@H]3[C@@H]12`, the activity change, negative = inhibition is -3.09% in assay [1]; -2.65% in assay [2]; 7.43% in assay [3]; -14.4% in assay [4]; 0.574% in assay [5].
For `CCOC(=O)c1cc2n(n1)CC(C)(C(=O)NC1CCCCCC1)N(c1ccc(F)cc1)C2=O` (stereo not given), the activity change, negative = inhibition in assay [1] is 5.12%; in assay [2], 0.594%; in assay [3], -2.83%; in assay [4], 9.06%; in assay [5], 4.23%.
In the same order, the values of `COc1ccc(CN2C(=O)c3cc4sccc4n3CC2(C)C(=O)NC2CCCCC2)cc1OC` (stereo not given) are 3.71%, 0%, 5.67%, -28% and 4.42%.
As for `COc1ccc(NS(=O)(=O)c2cc3c(cc2C)n(C)c(=O)n3C)cc1Cl`, the activity change, negative = inhibition in assay [1] was 0.021%; in assay [2] it was 0.227%; in assay [3], -3.31%; in assay [4], -7.83%; in assay [5], -0.95%.
For `Cn1cnc(S(=O)(=O)N2CC(c3nc(-c4ccncc4)no3)C2)c1`, the activity change, negative = inhibition in assay [1] worked out at 0.064%; in assay [2], 0.456%; in assay [3], 1.26%; in assay [4] it was 2.16%; in assay [5], 2.71%.
As to `Cc1ccc(CN2CCC(CNc3cc(C4CC(O)C4)ncn3)CC2)o1` (stereo not given), the activity change, negative = inhibition was -1.15% in assay [1]; 0.101% in assay [2]; -17.3% in assay [3]; -4.05% in assay [4]; -2.81% in assay [5].
Consider `COCC1CN(C2CCC2)CC12CCN(Cc1scnc1C)CC2` (stereo not given), for which the activity change, negative = inhibition in assay [1] was -9.49%; in assay [2] it was -12.7%; in assay [3], -9.16%; in assay [4], -18.2%; in assay [5] it was -8.36%.
In the same order, the values of `Cc1cn([C@H]2CC(N=[N+]=[N-])[C@@H](CO)O2)c(=O)[nH]c1=O` (stereo not given in full) are 4.47%, 11.7%, 12.4%, -5.52% and 2.37%.
The like results for `Cc1cc(C)cc(NC(=O)c2cc3n(n2)CC(C)(C(=O)NC2CCCCCC2)N(C)C3=O)c1` (stereo not given) were, in that order, 6.61%, 0.692%, 7.63%, -1.04% and 3.73%.
In the same order, the values of `Cc1cc(C(=O)N2CCC3(CC2)CC(N(Cc2ccc(F)cc2)C2CC2)CCO3)n(C)n1` (stereo not given) are -1.14%, -1.56%, 0.848%, -10.6% and -0.537%.

The record behind these values is PubChem BioAssay AID1745853 (National Center for Advancing Translational Sciences (NCATS), 2022).
